These results are taken from publication PMC4239057.

By UniProt entry, the sequences of proteins in these tests, tags left out. Residues count along the entry.
UniProt O54885, residues 22-114: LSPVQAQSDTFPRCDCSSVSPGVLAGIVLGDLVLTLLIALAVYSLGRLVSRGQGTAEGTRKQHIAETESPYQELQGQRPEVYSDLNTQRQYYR

No constants are given. Whether binding was seen depends on the method and setting. Binding seen in cells or lysates may run through a third protein. Some results given as binding are weak or reduced against the parent protein; the word gives no strength. For part of these data: Tags and fused reporters may be left off the sequences shown.

In assay [1] the target is T1, GST-OCILRP2e (aa 80-221) (mouse) (UniProt Q9WVF9).
T1 sequence: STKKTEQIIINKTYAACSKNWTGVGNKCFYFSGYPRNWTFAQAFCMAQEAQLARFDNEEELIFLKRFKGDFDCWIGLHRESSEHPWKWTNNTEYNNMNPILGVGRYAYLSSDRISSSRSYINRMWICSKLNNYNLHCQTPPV
In words: pull-down; GST or GST-fused protein on Glutathione-Sepharose 4B beads incubated 2 h at 4°C with lysate of EL4 cells stimulated 48 h with CD3/CD28 antibodies; 20 mM Tris-HCl pH 8.0, 200 mM NaCl, 1 mM EDTA, 0.5% Nonidet P-40; western blot with anti-DAP12 or anti-OCILRP2; only the target purified.

For assay [2], the target named is T2, GST-OCILRP2 (full-length recombinant OCILRP2 protein) (mouse) (UniProt Q9WVF9).
T2 sequence: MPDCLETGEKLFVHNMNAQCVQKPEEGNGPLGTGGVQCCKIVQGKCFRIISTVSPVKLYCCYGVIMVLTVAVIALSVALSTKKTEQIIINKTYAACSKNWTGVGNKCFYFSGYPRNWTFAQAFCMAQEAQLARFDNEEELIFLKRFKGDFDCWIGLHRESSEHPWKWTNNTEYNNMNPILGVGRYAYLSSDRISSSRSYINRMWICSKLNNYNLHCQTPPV
Described as above.

The target of assay [3] is T3, GST-OCILRP2i (aa 1-57) (mouse) (UniProt Q9WVF9).
T3 sequence: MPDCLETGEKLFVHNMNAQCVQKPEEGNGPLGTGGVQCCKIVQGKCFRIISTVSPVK
The assay is described as above.

The target of assay [4] is T4, HA-OCILRP2 (mouse) (UniProt Q9WVF9).
T4 sequence: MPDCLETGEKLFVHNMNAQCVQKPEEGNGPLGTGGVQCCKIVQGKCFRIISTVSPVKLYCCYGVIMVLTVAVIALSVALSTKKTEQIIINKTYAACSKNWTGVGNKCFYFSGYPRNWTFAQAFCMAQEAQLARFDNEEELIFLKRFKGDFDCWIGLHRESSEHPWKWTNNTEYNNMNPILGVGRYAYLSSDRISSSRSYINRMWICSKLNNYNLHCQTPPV
Put plainly: co-IP; 293T cells co-transfected 48 h with pCDNA3-HA-OCILRP2 and pDsRed-C1-DAP12; precipitated with anti-HA or anti-DAP12 antibody or control IgG, protein A/G, 4°C; western blot.

Assay [5] has as its target GST-DAP12 (UniProt O54885). Put plainly: pull-down; GST or GST-fused protein on Glutathione-Sepharose 4B beads incubated 2 h at 4°C with lysate of EL4 cells stimulated 48 h with CD3/CD28 antibodies; 20 mM Tris-HCl pH 8.0, 200 mM NaCl, 1 mM EDTA, 0.5% Nonidet P-40; western blot with anti-DAP12 or anti-OCILRP2; only the target purified.
Assay [6] addresses DsRed-DAP12 (UniProt O54885). In words: co-IP; 293T cells co-transfected 48 h with pCDNA3-HA-OCILRP2 and pDsRed-C1-DAP12; precipitated with anti-HA or anti-DAP12 antibody or control IgG, protein A/G, 4°C; western blot.

Regarding DAP12 (from UniProt O54885 22-114), the binding result in assay [1] is recorded as “no binding”; in assay [2], “binds”; in assay [3], “no binding”.

“DsRed-DAP12 (from UniProt O54885 22-114)”: the binding result in assay [4] was “binds”.

B1: OCILRP2 (protein, UniProt Q9WVF9-2 1-221)
chain: MPDCLETGEKLFVHNMNAQCVQKPEEGNGPLGTGGVQCCKIVQGKCFRIISTVSPVKLYCCYGVIMVLTVAVIALSVALSTKKTEQIIINKTYAACSKNWTGVGNKCFYFSGYPRNWTFAQAFCMAQEAQLARFDNEEELIFLKRFKGDFDCWIGLHRESSEHPWKWTNNTEYNNMNPILGVGRYAYLSSDRISSSRSYINRMWICSKLNNYNLHCQTPPV
B1: the binding entry in assay [5] is listed as “binds”.

B2: HA-OCILRP2 (protein, UniProt Q9WVF9-2 1-221)
chain: MPDCLETGEKLFVHNMNAQCVQKPEEGNGPLGTGGVQCCKIVQGKCFRIISTVSPVKLYCCYGVIMVLTVAVIALSVALSTKKTEQIIINKTYAACSKNWTGVGNKCFYFSGYPRNWTFAQAFCMAQEAQLARFDNEEELIFLKRFKGDFDCWIGLHRESSEHPWKWTNNTEYNNMNPILGVGRYAYLSSDRISSSRSYINRMWICSKLNNYNLHCQTPPV
As for B2, the binding entry in assay [6] is listed as “binds”.
